Out of some 140,000 compounds screened, about 240 (0.17%) were called active. Inconclusive results, whose numbers are uncertain, are shown with a selection of clear calls. Calls follow the shape of the dose curve; as a rule, active = well fitted inhibition curve with a large enough effect; inconclusive = small, poorly fitted or top-dose-only effect; inactive = no such curve, though single readings can be large or run the other way. Potencies beside an inconclusive call are fits to weak or partial responses and may not hold up.
Assay: Primary qHTS assay for inhibitors of alpha-synuclein gene (SNCA) expression; also: nearly all actives have a fitted effect of over 45% in size
Conditions: HEK-293 SNCA-luciferase knock-in, luminescence, 24 h; series mostly up to 57.2 µM
Potency is read from the fitted curve at half-maximal effect; tags tell the direction and shape of the fitted curve.

Row | SMILES | Potency
1 | C=CCNC(=O)N[C@H]1C[C@H]2C(=O)Nc3ccc(-c4cccs4)cc3C(=O)N2C1 | inactive
2 | COCC(=O)NC[C@@H]1C=C(C)[C@H](Cc2nc3ccccc3[nH]2)C[C@H]1C(C)C | inconclusive: 63.1 µM [inhibitor, partial curve, poor fit]
3 | Cc1ccc(OC2(C(=O)N(C)Cc3n[nH]c4c3CCCC4)CCNCC2)cc1 | inactive
4 | Cc1ccc(CN(Cc2cccn2-c2nnc(N3CCCC3=O)s2)C(=O)Nc2ccccc2C(F)(F)F)cc1 | inconclusive: 39.8 µM [inhibitor, single point]
5 | Cc1cc(C)c(CNC(=O)c2nc(-c3cccc(N4CCOCC4)c3)cc3[nH]ccc23)c(=O)[nH]1 | inactive
6 | COc1ccc(Nc2c3c(nc4ccc(NC(=O)/C=C/c5cccc(OC)c5OC)cc24)CCCC3)cc1OC | inconclusive: 39.8 µM [inhibitor, single point]
7 | CCOc1ccc(C(=O)N2CCCN(c3cc(-c4ccc(F)cc4)[nH]n3)CC2)cc1 | inconclusive: 31.6 µM [inhibitor, partial curve, poor fit]
8 | Cc1ccc(-c2cn3cc(C(=O)NCc4cccc(C(F)(F)F)c4)nc3s2)cc1 | inconclusive: 5.62 µM [inhibitor, single point]
9 | Cn1ncc2c(C(=O)NCc3cccc(C(F)(F)F)c3)cc(-c3ccsc3)nc21 | inconclusive: 6.31 µM [inhibitor, partial curve, poor fit]
10 | COc1cccc(C2C(C(=O)Nc3cccnc3)=C(C)Nc3nc(SCc4ccccc4)nn32)c1 (stereo unspecified) | inconclusive: 3.55 µM [inhibitor, single point]
11 | O=[S+]([O-])(c1ccccc1)N1CC2(COCCN(Cc3ccccc3)C2)C1 | inconclusive: 35.5 µM [inhibitor, partial curve, poor fit]
12 | Cn1ncc(N2CCOC(CCNC3CCC4(CCNCC4)CC3)C2)cc1=O (stereo unspecified) | inactive
13 | COc1ccccc1N1CCN(CCCNC(=O)Cn2ncc3c([nH]c4ccccc43)c2=O)CC1 | inconclusive: 39.8 µM [inhibitor, single point]
14 | Cc1ccccc1C(=O)N1CCN(c2cc(-c3ccc(F)cc3)[nH]n2)CC1 | inconclusive: 35.5 µM [inhibitor, partial curve, poor fit]
15 | CSc1nn(Cc2cccc(F)c2)c(N(C(C)=O)C(C)=O)c1S(=O)(=O)c1ccccc1 | inconclusive: 35.5 µM [inhibitor, single point]
16 | CCc1cccc(C)c1NC(=O)c1cnn(-c2ccc(F)cc2)c1-n1cccc1 | inconclusive: 25.1 µM [inhibitor, partial curve, poor fit]
17 | O=C(O)CCC(=O)NC[C@H]1Cn2c(-c3ccc(Cl)cc3)cnc2CO1 | inactive
18 | COc1ccccc1C(=O)N1CCC(N2CCOCC2=O)CC1 | inconclusive: 44.7 µM [inhibitor, single point]
19 | Cc1cccc2sc(N3CCN(C(=O)c4ccco4)CC3)nc12 | inactive
20 | CCc1ccc(CNC(=O)c2noc(-c3ccc4c(c3)OCO4)n2)cc1 | inactive
21 | O=C(NC1CC1)c1ccc2c(c1)OCCN(c1cccc(OC(F)(F)F)c1)C2 | inactive
22 | O=C(Nc1cccc(-n2cccn2)c1)C1CCCN1C(=O)CC1CC1 (stereo unspecified) | inactive

Row | SMILES | Potency
23 | CNCCN(C)Cc1cn[nH]c1-c1ccc(OC2CC(OCCC3CCOCC3)C2)cc1 (stereo unspecified) | inconclusive: 0.27 µM [inhibitor, full curve]
24 | CCOc1ccc(CC(=O)NC2CCN(c3cc(-c4ccccc4)[nH]n3)C2)cc1OCC (stereo unspecified) | inactive
25 | CCN(CC)CCCNC(=O)Cn1c(-c2cccs2)cc2cc(Cl)ccc21 | inconclusive: 39.8 µM [inhibitor, single point]
26 | O=C(CCCCn1c(=O)[nH]c2ccsc2c1=O)N1CCN(c2cccc(Cl)c2)CC1 | inconclusive: 15.8 µM [inhibitor, single point]
27 | Cc1ccc(CSc2nc3ccc(NC(=O)COc4ccccc4F)cc3s2)cc1 | inconclusive: 1.26 µM [inhibitor, single point]
28 | O=C(CN1C(=O)C2(SCC(=O)N2c2cccc(Cl)c2)c2ccccc21)NC1CCCCC1 (stereo unspecified) | inconclusive: 39.8 µM [inhibitor, single point]
29 | COc1ccc(OC)c([S+](=O)([O-])c2nnn3c2nc(NCc2ccncc2)c2ccccc23)c1 | inconclusive: 3.98 µM [inhibitor, single point]
30 | Cc1cc(C)c(/C=C/c2onc(C)c2S(=O)(=O)N2CCC(C(=O)NCc3ccco3)CC2)c(C)c1 | inconclusive: 20 µM [inhibitor, single point]
31 | O=C(COCc1cc(-c2ccco2)on1)Nc1ccc(OC(F)(F)F)cc1 | inconclusive: 5.62 µM [inhibitor, single point]
32 | CC(C)N1C[C@H](O)C[C@H]1c1nnc2n1CCN(C(=O)c1nccn1C)CC2 | inactive
33 | CC(=O)c1ccc(NC(=O)CN2C(=O)NC3(CCC(C(C)(C)C)CC3)C2=O)cc1 (stereo unspecified) | inactive
34 | CC(C)S(=O)(=O)c1ncc(CN(C)Cc2cnn(C)c2)n1CCc1ccccc1 | inactive
35 | CC(=O)c1cc(-c2ccccc2)n(CCC(=O)Nc2cc(C)cc(C)c2)c1C | inconclusive: 31.6 µM [inhibitor, single point]
36 | N#Cc1cccnc1-c1ccc(C(=O)N2CCC(NC(=O)c3ccc(F)cc3)CC2)cc1 | inconclusive: 11.2 µM [inhibitor, partial curve, poor fit]
37 | COc1cccc(NC(=O)C2CN(C3CCCCC3)C(=O)N2)c1 (stereo unspecified) | inconclusive: 17.8 µM [inhibitor, partial curve, poor fit]
38 | COc1ccc(-c2onc(C)c2C)cc1S(=O)(=O)N1CCC(C)CC1 | inconclusive: 15.8 µM [inhibitor, single point]
39 | Cn1c2c(c3cc(F)ccc31)CN(C(=O)Nc1ccccc1)CC2 | inactive
40 | COc1ncccc1-c1cc(-c2ccncc2)c2cncn2c1 | inactive
41 | CCOc1ccccc1CN1CCC2(CCN(C(=O)COC)CC2)Oc2ccccc21 | inactive
42 | CCC(=O)N1CCCN(Cc2ccc3c(c2)OCO3)c2ccccc21 | inconclusive: 3.16 µM [inhibitor, single point]
43 | Cc1ccc(C(=O)N2CCN(Cc3ccccc3-c3ccccc3F)CC2)cc1 | inactive
44 | COCCNC(=O)[C@@H]1C[C@H](Oc2ccccc2)CN1C(=O)COc1ccccc1 | inconclusive: 5.62 µM [inhibitor, full curve, poor fit]

Row | SMILES | Potency
45 | COc1ccc(NC(=O)CN(C)S(=O)(=O)c2ccc3[nH]c4c(c3c2)CCCC4)cc1Cl | inconclusive: 20 µM [inhibitor, partial curve, poor fit]
46 | CC(C)NC(=O)c1ccccc1OCC1CCCN(Cc2ccc(F)cc2)C1 (stereo unspecified) | inactive
47 | CCn1c(=O)c2c(cc(C)n2C)n(CC(=O)Nc2ccc(OC)c(Cl)c2)c1=O | inconclusive: 3.55 µM [inhibitor, full curve, poor fit]
48 | CCCCCCCCCCC(C)(C)C(=O)Nc1c(OC)cc(OC)cc1OC | inconclusive: 35.5 µM [inhibitor, single point]
49 | COc1ccccc1CN1CCN(C(=O)c2ccc3c(c2)C(O)CCCCCN3C)CC1 (stereo unspecified) | inactive
50 | CC1=C(C(=O)OC(C)C)C(c2ccccc2Cl)N2C(CC(=O)NCC3CC3)=CSC2=N1 (stereo unspecified) | inactive
51 | COc1ccc(N(Cc2ccccc2)C(=O)c2nc(SC)ncc2Cl)cc1 | inconclusive: 31.6 µM [inhibitor, single point]
52 | Cc1ccc(NC(=O)CC2Nc3cccc4cccc(c34)NC2=O)cc1 (stereo unspecified) | inconclusive: 2.82 µM [inhibitor, full curve, poor fit]
53 | COc1ccc(CNC(=O)c2cccc(NC(=O)N3CCSc4ncccc43)c2)cc1 | inconclusive: 39.8 µM [inhibitor, single point]
54 | CC(=O)Nc1ccc(S(=O)(=O)NC[C@@H]2C=C(C)[C@H](CC(=O)NC3CCCC3)C[C@H]2C(C)C)cc1 | inconclusive: 5.62 µM [inhibitor, partial curve]
55 | Cc1ccccc1S(=O)(=O)N1CCCC(CCC(=O)Nc2cccc(Cl)c2)C1 (stereo unspecified) | inconclusive: 39.8 µM [inhibitor, single point]
56 | O=C(c1ccccc1)N1CCCC(C(=O)N2CCCC(c3nc4ccncc4[nH]3)C2)C1 (stereo unspecified) | inactive
57 | O=C(C1CCCN1C(=O)Cc1ccc(F)cc1)N1CCC(N2Cc3cccn3C2=O)CC1 (stereo unspecified) | inactive
58 | CN(C)CCNC(=O)c1ccc(-c2ccc(N3CCCCCC3)nc2)cc1 | inactive
59 | Cc1cnc(C2CC2)n1C1CCCN(C(=O)c2ccco2)C1 (stereo unspecified) | inconclusive: 39.8 µM [inhibitor, single point]
60 | COc1ccc(Oc2ncc3nc(-c4cccs4)c(=O)n(CCC#N)c3n2)cc1 | inconclusive: 39.8 µM [inhibitor, partial curve, poor fit]
61 | O=C(N[C@H](Cc1ccccc1)C1CC(O)C1)c1cnn(Cc2ccccc2)c1 (stereo partly specified) | inactive
62 | COc1ccc(NC(=O)Cn2c(N3CCC(C)CC3)nc(C)cc2=O)cc1 | inconclusive: 39.8 µM [inhibitor, single point]
63 | CCn1ccc(C(=O)N2CCC3(CC2)CC(c2nnc(COC)o2)N(C)C3)n1 (stereo unspecified) | inactive
64 | COc1ccc(-c2cc(C(C)=O)c(C)n2CCC(=O)NCc2ccc(F)cc2)cc1 | inconclusive: 7.08 µM [inhibitor, single point]
65 | C=C(C)CN(CC)C(=O)c1coc(CN2CCN(C/C=C/c3ccccc3)CC2)n1 | inconclusive: 4.47 µM [inhibitor, single point]
66 | Cc1cc(N2CCC(C)CC2)nc2ccc(NC(=O)CCC(=O)N3CCN(c4cccc(C(F)(F)F)c4)CC3)cc12 | inconclusive: 39.8 µM [inhibitor, single point]

From PubChem BioAssay AID1671194 (National Center for Advancing Translational Sciences (NCATS), 2021)
